Values joined by “and” are separate entries in the source; they are usually repeats but may differ in a detail not shown here. Equal entries are not always repeated.
Test system: patients with moderate to severe L-DOPA-induced dyskinesia (LID) in Parkinson's disease
Assay: Phase 2a study: adverse events (frequency, intensity, seriousness, causality), tolerability

## Cc1ccc(CNCC2(F)CCN(C(=O)c3ccc(F)c(Cl)c3)CC2)nc1 [NLX-112, (3-chloro-4-fluoro-phenyl)-[4-fluoro-4-{[(5-methyl-pyridin-2-ylmethyl)-amino]-methyl}piperidin-1-yl]methanone]
In vivo
  Micturition urgency: subjects n: 1
  Muscle spasms: events m: 1
  Muscle spasms: subjects %: (5.6%)
  Muscle spasms: subjects n: 1
  Musculoskeletal and connective tissue disorders (SOC): events m: 6
  Musculoskeletal and connective tissue disorders (SOC): subjects %: (28%)
  Musculoskeletal and connective tissue disorders (SOC): subjects n: 5
  Musculoskeletal stiffness: events m: 1
  Musculoskeletal stiffness: subjects %: (5.6%)
  Musculoskeletal stiffness: subjects n: 1
  Nasopharyngitis: events m: 1
  Nasopharyngitis: subjects %: (5.6%)
  Nasopharyngitis: subjects n: 1
  Nausea: events m: 4
  Nausea: events, m: 2 and 1
  Nausea: subjects %: (22%)
  Nausea: subjects n: 4
  Neck pain: events m: 0
  Neck pain: subjects n: 0
  Nervous system disorders (SOC): events m: 16
  Nervous system disorders (SOC): subjects %: (56%)
  Nervous system disorders (SOC): subjects n: 10
  On and off phenomenon: events m: 1
  On and off phenomenon: subjects %: (5.6%)
  On and off phenomenon: subjects n: 1
  Orthostatic hypotension (AE): events m: 2
  Orthostatic hypotension (AE): subjects n: 2
  Orthostatic hypotension: subjects, %: (13) %
  Pain in extremity: events m: 1
  Pain in extremity: subjects %: (5.6%)
  Pain in extremity: subjects n: 1
  Palpitations: events m: 1
  Palpitations: subjects %: (5.6%)
  Palpitations: subjects n: 1
  Parkinsonism: events m: 3
  Parkinsonism: subjects %: (17%)
  Parkinsonism: subjects n: 3
  Parkinsonism: subjects, %: (17) %
  Parosmia: events m: 1
  Parosmia: subjects %: (5.6%)
  Parosmia: subjects n: 1
  Pollakiuria: events m: 1
  Pollakiuria: subjects %: (5.6%)
  Pollakiuria: subjects n: 1
  Product communication issue: events m: 1
  Product communication issue: subjects %: (5.6%)
  Product communication issue: subjects n: 1
  Psychiatric disorders (SOC): events m: 9
  Psychiatric disorders (SOC): subjects %: (33%)
  Psychiatric disorders (SOC): subjects n: 6
  Rapid eye movement sleep behaviour disorder: events m: 1
  Rapid eye movement sleep behaviour disorder: subjects %: (5.6%)
  Rapid eye movement sleep behaviour disorder: subjects n: 1
  Renal and urinary disorders (SOC): events m: 2
  Renal and urinary disorders (SOC): subjects %: (11%)
  Renal and urinary disorders (SOC): subjects n: 2
  Restless legs syndrome: events m: 2
  Restless legs syndrome: subjects n: 2
  Rhinitis: events m: 0
  Rhinitis: subjects n: 0
  SAE Congenital Anomaly or Birth Defect (CA or BD): events m: 0
  SAE Congenital Anomaly or Birth Defect (CA or BD): subjects n: 0
  SAE Congenital Anomaly or Birth Defect: events m: 0
  SAE Congenital Anomaly or Birth Defect: subjects n: 0
  SAE Is Life Threatening (ILT): events m: 0
  SAE Is Life Threatening (ILT): subjects n: 0
  SAE Is Life Threatening: events m: 0
  SAE Is Life Threatening: subjects n: 0
  SAE Other Medically Important Serious Event (OMISE): events m: 0
  SAE Other Medically Important Serious Event (OMISE): subjects n: 0
  SAE Other Medically Important Serious Event: events m: 0
  SAE Other Medically Important Serious Event: subjects n: 0
  SAE Requires or Prolongs Hospitalization (RPH): events m: 0
  SAE Requires or Prolongs Hospitalization (RPH): subjects n: 0
  SAE Requires or Prolongs Hospitalization: events m: 0
  SAE Requires or Prolongs Hospitalization: subjects n: 0
  Sleep disorder: events m: 1
  Sleep disorder: subjects %: (5.6%)
  Sleep disorder: subjects n: 1
  Somnolence: events m: 1
  Somnolence: subjects %: (5.6%)
  Somnolence: subjects n: 1
  Stress: events m: 1
  Stress: subjects %: (5.6%)
  Stress: subjects n: 1
  Surgical and medical procedures (SOC): events m: 2
  Surgical and medical procedures (SOC): subjects %: (5.6%)
  Surgical and medical procedures (SOC): subjects n: 1
  Swelling of eyelid: events m: 1
  Swelling of eyelid: subjects %: (5.6%)
  Swelling of eyelid: subjects n: 1
  Syncope: events m: 0
  Syncope: subjects n: 0
  Systolic hypertension: events m: 1
  Systolic hypertension: subjects %: (5.6%)
  Systolic hypertension: subjects n: 1
  Taste disorder: events m: 0
  Taste disorder: subjects n: 0
  Tinnitus: events m: 1
  Tinnitus: subjects %: (5.6%)
  Tinnitus: subjects n: 1
  Vascular disorders (SOC): events m: 3
  Vascular disorders (SOC): subjects %: (17%)
  Vascular disorders (SOC): subjects n: 3
  Vertigo: events m: 2
  Vertigo: subjects n: 2
  Vertigo: subjects, %: (11) %
  Vomiting: events m: 2
  Vomiting: subjects n: 2
  Vomiting: subjects, %: (11) %
  highest titration dose 1.0 mg: patients %: 6.7%
  highest titration dose 1.0 mg: patients n: 1
  highest titration dose 1.75 mg: patients %: 13.3%
  highest titration dose 1.75 mg: patients n: 2
  highest titration dose 2.0 mg: patients %: 80%
  highest titration dose 2.0 mg: patients n: 12
  intensity of all AEs reported by patients on NLX-112: mild to moderate
  number of adverse events per patient: 71/18
  number of adverse events per patient, higher than placebo group: about 11%
  number of dizziness adverse events per patient: 2/18
  overall safety and tolerability in Parkinson's disease patients: safe and well tolerated
  patients with AEs that led to dose reductions or dose interruptions: 4
  proportion of patients experiencing an adverse event, higher than placebo group: 11%
In vivo, po
  Oral pain: events m: 1
  Oral pain: subjects %: (5.6%)
  Oral pain: subjects n: 1
In vivo, sc
  Skin and subcutaneous tissue disorders (SOC): events m: 0
  Skin and subcutaneous tissue disorders (SOC): subjects n: 0
Steady state (NS), N=15
  AE severity Death: events m: 0
  AE severity Death: subjects n: 0
  Any AE leading to death: events m: 0
  Any AE leading to death: subjects n: 0
  SAE Persistent or Significant Disability/Incapacity (PSD/I): events m: 0
  SAE Persistent or Significant Disability/Incapacity (PSD/I): subjects n: 0
up-titration (NU), N=18
  AE severity Death: events m: 0
  AE severity Death: subjects n: 0
  Any AE leading to death: events m: 0
  Any AE leading to death: subjects n: 0
  SAE Persistent or Significant Disability/Incapacity (PSD/I): events m: 0
  SAE Persistent or Significant Disability/Incapacity (PSD/I): subjects n: 0

Reference: patent US20250295648A1 (priority 2024, published 2025)
